# In publication PMC4336329 (PLoS ONE, 2015):
# Among all 310,000 compounds or so, about 14,000 (4.5%) showed an effect of 50% or more. Effects have a minus sign here. This is one part of the list.
# Molecular target: human ether-à-go-go-related gene (hERG) potassium channel (human, UniProt Q12809)
# Assay: primary screen, population patch clamp on CHO cells stably expressing hERG
# 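Also: peak tail current of the secondary pulse compared with the same well before compound.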
# Sequence of human ether-à-go-go-related gene (hERG) potassium channel (Q12809 whole entry, looked up): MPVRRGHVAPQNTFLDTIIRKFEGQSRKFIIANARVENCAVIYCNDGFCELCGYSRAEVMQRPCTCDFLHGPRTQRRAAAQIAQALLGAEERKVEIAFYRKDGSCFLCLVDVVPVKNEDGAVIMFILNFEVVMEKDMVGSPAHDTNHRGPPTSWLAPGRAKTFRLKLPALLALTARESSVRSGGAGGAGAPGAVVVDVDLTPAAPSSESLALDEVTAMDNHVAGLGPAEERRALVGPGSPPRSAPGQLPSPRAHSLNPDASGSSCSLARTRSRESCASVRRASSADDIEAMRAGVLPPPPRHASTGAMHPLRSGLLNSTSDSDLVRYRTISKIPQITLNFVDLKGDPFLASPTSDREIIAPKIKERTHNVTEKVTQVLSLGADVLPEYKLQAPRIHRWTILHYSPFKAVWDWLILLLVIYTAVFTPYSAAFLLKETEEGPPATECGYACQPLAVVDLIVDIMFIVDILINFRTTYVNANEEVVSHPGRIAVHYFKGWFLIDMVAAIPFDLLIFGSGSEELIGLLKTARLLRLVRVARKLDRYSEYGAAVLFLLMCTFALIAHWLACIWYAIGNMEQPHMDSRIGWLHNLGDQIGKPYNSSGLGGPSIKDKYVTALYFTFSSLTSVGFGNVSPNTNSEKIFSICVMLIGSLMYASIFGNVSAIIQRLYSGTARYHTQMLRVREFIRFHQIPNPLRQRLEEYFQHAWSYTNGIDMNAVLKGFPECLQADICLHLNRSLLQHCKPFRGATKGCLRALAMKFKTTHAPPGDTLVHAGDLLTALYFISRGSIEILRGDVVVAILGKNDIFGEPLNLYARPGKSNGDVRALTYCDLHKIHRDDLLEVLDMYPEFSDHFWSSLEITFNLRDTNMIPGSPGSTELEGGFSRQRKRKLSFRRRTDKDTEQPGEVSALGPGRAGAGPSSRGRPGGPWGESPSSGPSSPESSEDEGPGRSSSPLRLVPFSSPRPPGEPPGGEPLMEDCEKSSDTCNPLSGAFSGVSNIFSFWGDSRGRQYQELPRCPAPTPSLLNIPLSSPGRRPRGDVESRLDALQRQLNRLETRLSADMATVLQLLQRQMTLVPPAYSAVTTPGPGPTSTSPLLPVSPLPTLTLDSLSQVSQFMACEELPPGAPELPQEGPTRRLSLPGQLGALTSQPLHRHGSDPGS
row,Structure (SMILES),"hERG current change (%, negative = inhibition) at 10uM [%]"
1,Cc1cccc(/C=N/NC(=O)c2cccc([N+](=O)[O-])c2)n1,-1.15
2,Nc1nc(SCc2nnc(SCC(=O)O)n2-c2ccccc2)nc2sc3c(c12)CCCC3,-2.11
3,CCOc1cccc(N2C(=O)CC(n3cnc4ccccc43)C2=O)c1 (stereo not drawn),8.48
4,COc1ccc(CCNC(=O)CCC(=O)Nc2nnc(C(C)C)s2)cc1OC,10.4
5,Cc1cccc(C(=O)Nc2ccc(O)c3c(=O)cc(-c4ccccc4Cl)oc23)c1,0.883
6,Cc1ccccc1Nc1nc(N)nc(COC(=O)c2ccccc2)n1,16.1
7,COCCNC(=O)C1CC(c2ccc(C(F)(F)F)cc2)=NO1 (stereo not drawn),1.35
8,NC(=S)Nc1ccc2cn[nH]c2c1,1.7
9,Cc1ccc(S(=O)(=O)Nc2nc(C)c(C)s2)cc1,1.65
10,COc1ccc(S(=O)(=O)Nc2ccc3ccccc3c2)cc1C,-8.79
11,Fc1ccccc1CSc1nnc(-c2cccs2)o1,-9.96
12,COc1ccc(CCNS(=O)(=O)c2ccc3c(c2)CCN3C(=O)C2CC2)cc1OC,0.919
13,N#Cc1nc(-c2ccco2)oc1NCc1cccnc1,-10.3
14,Cn1nccc1C(=O)N1CCN(S(=O)(=O)c2ccc(Br)s2)CC1,0.853
15,C=C(C)C(=O)Nc1ccc(OC(F)(F)C(F)F)c(NC(=O)C(=C)C)c1,3.49
16,CCOCCSc1n[nH]c(=O)n1CCc1ccccc1,11.1
17,COc1ccc(C)cc1NC(=O)CN1CCN(c2ccccc2F)CC1,-10.3
18,O=[N+]([O-])c1cccc2ccc(N3CCOCC3)nc12,7.51
19,COC(=O)C1=C(N)Oc2cc(C)oc(=O)c2C1c1cccnc1 (stereo not drawn),-16.1

row,Structure (SMILES),"hERG current change (%, negative = inhibition) at 10uM [%]"
1,CC(OC(=O)c1nn(C)c(=O)c2ccccc12)C(=O)NC1CCCCC1C (stereo not drawn),-3.75
2,CCn1nc(C)cc1C(=O)N1CCc2c([nH]c3ccccc23)C1c1cc(F)ccc1F (stereo not drawn),-1.16
3,COC(=O)c1cc(CC(=O)c2ccc(O)cc2O)c(C)o1,8.21
4,Cc1ncoc1C(=O)N1CCCC(C(=O)c2cccc3ccccc23)C1 (stereo not drawn),5.95
5,Cc1nc(NCCCO)c(C#N)c2c1COC(C)(C)C2,-15
6,Cc1cc(NC(=O)C(C)SCC(=O)Nc2nc3c(F)cc(F)cc3s2)no1 (stereo not drawn),14.2
7,O=C(CS(=O)CC(=O)Nc1cccc2c1CCCC2)Nc1ccc(F)cc1 (stereo not drawn),16.6
8,COc1ccc2nc(NC(=O)c3ccco3)sc2c1,2.66
9,CCOc1ccc(N(Cc2ccc(OC)cc2)C(=O)c2ccco2)cc1,-35.9
10,Cc1ccc(C(C(=O)NC2CCCCC2)N2CCOCC2)cc1 (stereo not drawn),1.7
11,CC(N=Cc1cccc(O)c1O)c1ccccc1 (stereo not drawn),-4.41
12,S=c1[nH]nc(-c2ccco2)n1/N=C/c1c(Cl)cccc1Cl,-10.9
13,CN(CC(=O)Nc1cccc2c1CCCC2)S(=O)(=O)c1ccc(Br)cc1,2.3
14,O=c1c2ccc(Cl)cc2[nH]c(=S)n1-c1cccnc1,20.7
15,Cc1c(CCO)sc[n+]1CC(=O)OCCC12CC3CC(CC(C3)C1)C2.[Cl-],11.8
16,COc1ccc(N2CCN(C(=O)c3oc4ccccc4c3NC(=O)Cc3ccc(OC)c(OC)c3)CC2)cc1,-28.7
17,COc1cccc(NC(=O)CN(C)C(=O)c2ccccc2-c2nc3ccccc3s2)c1,-22.5
18,O=C(CNC(=O)/C(=C\c1ccc(F)cc1)NC(=O)c1ccccc1)OCc1ccccc1,-80.7
19,O=C(CSc1nc2cc3ccccc3cc2[nH]1)Nc1ccc(F)cc1,18.4

row,Structure (SMILES),"hERG current change (%, negative = inhibition) at 10uM [%]"
1,COc1ccc(-n2ccnc(SCC(=O)NCc3ccc(C)cc3)c2=O)cc1Cl,-11.1
2,CN1c2ccccc2Sc2cc(N)ccc21,-8.13
3,Cc1cc(C(=O)O)c(S(C)(=O)=O)s1,-1.18
4,CNc1ncnc2c1ncn2[C@@H]1O[C@H](CO)[C@@H](O)[C@H]1O,9.17
5,CCc1ccc(CN(C(=O)c2ccco2)C2CCS(=O)(=O)C2)cc1 (stereo not drawn),-9.54
6,O=C(NC1CCS(=O)(=O)C1)c1ccc(S(=O)(=O)NCC2CCCO2)cc1 (stereo not drawn),-3.14
7,CCc1nc(CN2CCN(c3ccc(C(F)(F)F)cn3)CC2)c(C)[nH]1,-55.6
8,CCN1CCN(C(=O)CN(c2ccc(C)cc2)S(C)(=O)=O)CC1,15.8
9,CS(=O)(=O)N(CC(=O)N1CCN(c2ccc(F)cc2)CC1)c1ccc(F)c(Cl)c1,-35.4
10,Cc1ccc(CNC(=O)CCS(=O)(=O)c2cccc3nonc23)cc1,-4.76
11,Nc1ccc(S(=O)(=O)NNC(=O)C(=O)NNc2ccccn2)cc1,8.41
12,COC(=O)c1cccnc1NC(=S)NNC(=O)c1ccncc1,8.49
13,CCOC(=O)c1ccc[n+](CC(=O)c2ccccc2)c1.[Br-],-2.44
14,O=C(NCc1ccccc1F)C1CCCN1C(=O)Nc1ccc(F)cc1 (stereo not drawn),9.24
15,CCCc1cc(=O)oc2cc(OCc3cc(OC)c(OC)c(OC)c3)c(Cl)cc12,17.4
16,Fc1ccc(Nc2c(-c3ccco3)nc3ccccn23)cc1,-13.7
17,CN(C)c1ccc(/C=C(/NC(=O)c2ccccc2Cl)C(=O)NCCN2CCOCC2)cc1,-2.28
18,COc1ccc(N(C(C)C(=O)Nc2cccnc2)S(C)(=O)=O)cc1 (stereo not drawn),2.3
19,O=C(COc1ccc(F)cc1Cl)Nc1nc(-c2ccccn2)cs1,18.9
